Test results: the supplement of paper PMC12217912
The other results are listed elsewhere or left out. The full chains were built here from the parent and the listed change. Values near 0.05 are background.

B1: TEV protease; numbered along this chain (parent)
chain: MGESLFKGPRDYNPISSSICHLTNESDGHTTSLYGIGFGPFIITNKHLFRRNNGTLVVQSLHGVFKVKDTTTLQQHLVDGRDMIIIRMPKDFPPFPQKLKFREPQREERICLVTTNFQTKSMSSMVSDTSCTFPSGDGIFWKHWIQTKDGQCGSPLVSTRDGFIVGIHSASNFTNTNNYFTSVPKNFMELLTNQEAQQWVSGWRLNADSVLWGGHKVFMVKPEEPFQPVKEATQL

Variants of: B1
Test: raw area under fraction-flipped curve 0-4 h after induction (AUC4h, not background-subtracted), DNA-recorder readout of cleavage of the substrate (dimensionless); higher = more cleavage of the substrate by the protease variant
Settings: temperature: 34 °C; time window: 0-4 h after rhamnose induction
Experimental: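 In vivo DNA recorder in E. coli TOP10(DE3) ΔrhaA at 34 °C. Each TEVp single-site mutant (parent TEVp 0) is paired with a single-site variant of the 7-mer TEVs (canonical ENLYFQ|S). The substrate sits between flexible linkers in a Bxb1-sfGFP-TEVs-SsrA fusion, so cleavage stabilises Bxb1 and speeds flipping of a recombination array, read by NGS. The value is the raw area under the fraction-flipped curve over 0-4 h after rhamnose induction (AUC4h), with ≥20 reads per time point. It is not background-subtracted; inactive controls average about 0.047.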
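Also: Bxb1 expression induced with 0.2% (w/v) L-rhamnose at OD600 near 0.5, cultures sampled hourly, flipped fraction per protease–substrate barcode pair counted by paired-end Illumina sequencing.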

Row | Variant | area with substrate ENLYFQA | area with substrate ENLYFQC | area with substrate ENLYFQD | area with substrate ENLYFQF | area with substrate ENLYFQG | area with substrate ENLYFQI | area with substrate ENLYFQL | area with substrate ENLYFQM | area with substrate ENLYFQR | area with substrate ENLYFQS | area with substrate ENLYFQT | area with substrate ENLYFQV | area with substrate ENLYFQW | area with substrate ENLYFQY | area with substrate ENLYFQN | area with substrate ENLYFQE | area with substrate ENLYFQH | area with substrate ENLYFQK | area with substrate ENLYFQP | area with substrate ENLYFQQ
1 | MGESLFKGPRDYNPISSSICHLTNESDGHTTSLYGIGFGPFIITNKHLFRRNNGTLVVQSLHGNFKVKDTTTLQQHLVDGRDMIIIRMPKDFPPFPQKLKFREPQREERICLVTTNFQTKSMSSMVSDTSCTFPSGDGIFWKHWIQTKDGQCGSPLVSTRDGFIVGIHSASNFTNTNNYFTSVPKNFMELLTNQEAQQWVSGWRLNADSVLWGGHKVFMVKPEEPFQPVKEATQL [V64N] | 0.109 | 0.122 | 0.0691 | 0.0743 | 0.119 | 0.0497 | 0.062 | 0.0675 | 0.0431 | 0.103 | 0.0642 | 0.0557 | 0.0565 | – | – | – | – | – | – | –
2 | MGESLFKGPRDYNPISSSICHLTNESDGHTTSLYGIGFGPFIITNKHLFRRNNGTLVVQSLHGVFKVKDTTTLQQHLVDGRDMIIIRMPKDFPPFPQKLKFREPQREERICLVTTNFQTKSMSSMVSDTSCTFPSGDGIFWKHLIQTKDGQCGSPLVSTRDGFIVGIHSASNFTNTNNYFTSVPKNFMELLTNQEAQQWVSGWRLNADSVLWGGHKVFMVKPEEPFQPVKEATQL [W144L] | 0.0796 | 0.0838 | 0.0702 | – | – | – | 0.076 | – | 0.0739 | 0.0864 | – | – | 0.0777 | 0.0639 | – | – | – | – | – | –
3 | MGESLFKGPRDYNPISSSICHLTNESDGHTTSLYGIGFGPFIITNKHLFRRNNGTLVVQSLHGVFKVKDTTTLQQHLVDGRDMIIIRMPKDFPPFPQKLKFREPQREERICLVTTNFQTKSMSSMVSDTSCYFPSGDGIFWKHWIQTKDGQCGSPLVSTRDGFIVGIHSASNFTNTNNYFTSVPKNFMELLTNQEAQQWVSGWRLNADSVLWGGHKVFMVKPEEPFQPVKEATQL [T132Y] | 0.0552 | – | 0.0516 | – | – | 0.0453 | – | 0.0626 | 0.0504 | 0.0588 | 0.0567 | 0.0504 | 0.0651 | – | 0.0597 | – | – | – | – | –
4 | MGESLFKGPRDYNPISSSICHLTNESDGHTTSLYGIGFGPFIITNKHLFRRSNGTLVVQSLHGVFKVKDTTTLQQHLVDGRDMIIIRMPKDFPPFPQKLKFREPQREERICLVTTNFQTKSMSSMVSDTSCTFPSGDGIFWKHWIQTKDGQCGSPLVSTRDGFIVGIHSASNFTNTNNYFTSVPKNFMELLTNQEAQQWVSGWRLNADSVLWGGHKVFMVKPEEPFQPVKEATQL [N52S] | 0.0645 | 0.0854 | 0.0657 | – | – | 0.0481 | – | 0.0735 | 0.0595 | 0.0739 | 0.052 | 0.0498 | 0.0563 | – | 0.0638 | 0.0533 | 0.0622 | – | – | –
5 | MGESLFKGPRDYNPISSSICHLTNESDGHTTSLYGIGFGPFIITNKHLFRRNNGTLVVQSLHGVFKVKDTTTLQQHLVDGRDMIIIRMPKDFPPFPQKLKFREPQREERICLVTTNFQTKSMSSMVSDTSCTFPIGDGIFWKHWIQTKDGQCGSPLVSTRDGFIVGIHSASNFTNTNNYFTSVPKNFMELLTNQEAQQWVSGWRLNADSVLWGGHKVFMVKPEEPFQPVKEATQL [S135I] | 0.0929 | 0.0831 | – | 0.0507 | – | 0.0592 | 0.0637 | 0.0508 | 0.0592 | 0.0661 | 0.0595 | 0.0609 | 0.0399 | 0.0554 | 0.0488 | 0.0682 | 0.062 | 0.0561 | 0.0362 | 0.075
6 | MGESLFKGPRDYNPISSSICHLTNESDGHTTSLYGIGFGPFIITNKHLFRRNNGTLVVQSLHGVFKVKDTTTLQQHLVDGRDMIIIRMPKDFPPFPQKLKFREPQREERICLVTTNFQTKSMSSMVSDTSCTFPSGDGIFWKHWIQTKDGQCGSPLVSTRDGFIVGIHSASNFTNTNNYFTSVPKNFMELLTNQEAQQWVSGWRLNADSVLWGMHKVFMVKPEEPFQPVKEATQL [G214M] | 0.065 | 0.0898 | – | – | 0.0436 | 0.0397 | 0.0562 | 0.0782 | 0.0719 | 0.08 | 0.0529 | – | 0.0575 | 0.06 | 0.0621 | – | – | – | 0.0548 | –
7 | MGESLFKGPRDYNPISSSICHLTNESDGHTTSLYGIGFGPFIITNKHLFRRNNGTLVVQSLHGVFKVKDTTTLQQHLVVGRDMIIIRMPKDFPPFPQKLKFREPQREERICLVTTNFQTKSMSSMVSDTSCTFPSGDGIFWKHWIQTKDGQCGSPLVSTRDGFIVGIHSASNFTNTNNYFTSVPKNFMELLTNQEAQQWVSGWRLNADSVLWGGHKVFMVKPEEPFQPVKEATQL [D79V] | 0.095 | 0.102 | 0.0725 | 0.0648 | 0.0895 | 0.0595 | 0.0738 | – | 0.0469 | 0.0974 | – | 0.0527 | 0.0588 | 0.0695 | – | – | 0.0622 | 0.0609 | – | –
8 | MGESLFKGPRDYNPISSSICHLTNESDGHTTSLYGIGFGPFIITNKHLFRRNNGTLVVQSLHGVFKVKDTTTLQQHLVDGRDMIIIRMPKDFPPFPQKLKFREPQREERICLVTTNFQTKSMSSMVSDTSCTFPSGDGIFWKHWIQTKDGQCGSPLVSTRDGFIVGIHSASNFTNTNNYFTSVPKNFMELLTNQEAQQWVSGWRLNADSVLWGGHKVFMVYPEEPFQPVKEATQL [K221Y] | 0.0967 | 0.11 | – | 0.0356 | 0.133 | 0.0618 | 0.0562 | 0.0746 | 0.116 | 0.0976 | 0.0807 | 0.0561 | 0.0534 | 0.0659 | 0.0747 | – | – | 0.0766 | – | 0.0489
9 | MGESLFKGPRDYNPISSSICHLTNESDGHTTSLYGIGFGPFIITNKHLFRRNNGTLVVQSLHGVFKVKDTTTLQQHLVDGRDMIIIRMPKDFPPFPQKLKFREPQREERICLVTTNFQTKSMSSMVSDTSCTFPSGDGIFWKHWIQTKDGQCGSPLVSTRDGFIVGIHSASNFTNTNNYFTSVPKNFMELITNQEAQQWVSGWRLNADSVLWGGHKVFMVKPEEPFQPVKEATQL [L191I] | 0.0744 | 0.104 | – | 0.0798 | – | 0.0517 | 0.0602 | 0.0839 | 0.053 | 0.0925 | 0.0775 | – | 0.0561 | 0.091 | – | – | 0.0745 | – | 0.0624 | –
10 | MGESLFKGPRDYNPISSSICHLTNESDGHTTSLYGIGFGPFIITNRHLFRRNNGTLVVQSLHGVFKVKDTTTLQQHLVDGRDMIIIRMPKDFPPFPQKLKFREPQREERICLVTTNFQTKSMSSMVSDTSCTFPSGDGIFWKHWIQTKDGQCGSPLVSTRDGFIVGIHSASNFTNTNNYFTSVPKNFMELLTNQEAQQWVSGWRLNADSVLWGGHKVFMVKPEEPFQPVKEATQL [K46R] | 0.109 | 0.115 | 0.0586 | – | 0.0891 | 0.0605 | 0.058 | 0.0937 | 0.0644 | 0.093 | 0.0652 | – | 0.0512 | 0.0746 | – | – | – | 0.0607 | 0.0623 | 0.0632
